# Data as given in PubChem BioAssay AID1240 (Sanford-Burnham Center for Chemical Genomics, 2008).
# Hit rate of the full screen: of about 50,000 compounds, about 800 (1.6%) showed an effect of 50% or more. Some of the results follow.
# Molecular target: Bcl-2-like protein 10 (Homo sapiens) (UniProt Q9HD36)
# Test: TR3 peptide-Bcl-B binding displacers, biochemical primary FP assay, phenotype converters (AID 1240);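 also: 0% = Bcl-B with tracer peptide and DMSO and 100% = tracer peptide lacking Bcl-B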
# Details: GST-Bcl-B / FITC-TR3 peptide fluorescence polarization; stronger effect = higher value; compound at 3.75 mg/L
# Sequence of UniProt Q9HD36 (Q9HD36 whole entry, looked up): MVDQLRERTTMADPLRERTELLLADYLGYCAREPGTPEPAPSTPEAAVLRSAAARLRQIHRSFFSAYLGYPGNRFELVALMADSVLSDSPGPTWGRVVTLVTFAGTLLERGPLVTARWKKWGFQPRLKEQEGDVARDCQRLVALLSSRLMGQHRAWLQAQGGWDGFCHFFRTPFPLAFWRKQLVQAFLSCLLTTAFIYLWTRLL
row,Structure (SMILES),displacement
1,Cc1ccc(C(=O)N(c2c(C)n(C)n(-c3ccccc3)c2=O)C(C)C)cc1,7.5%
2,COc1ccc(Br)cc1CN1CCN(S(C)(=O)=O)CC1,8.3%
3,O=C1C=C(N2CCN(C(c3ccccc3)c3ccccc3)CC2)C2(CCCCC2)O1,12.2%
4,CCc1ccc(OCCSc2nc3ccccc3[nH]2)cc1,-3.3%
5,O=C(CSc1nnc(-c2cccs2)n1-c1ccccc1)c1ccc(F)cc1,0.7%
6,N/C(=N\N=C\c1ccc(O)c(O)c1)c1nonc1N,13.2%
7,C=CCNC(=O)C(=O)Nc1ccccc1C,1.9%
8,COC(=O)CCC(=O)Nc1cc(Cl)ccc1Cl,8.3%
9,COc1ccc(C(C2=C(O)CC(C)(C)CC2=O)C2=C(O)CC(C)(C)CC2=O)cc1CO,-1%
10,CC(C)c1ccc(N2C(=O)NC(=O)/C(=C/c3cc4c(cc3Cl)OCO4)C2=O)cc1,18.3%
11,COc1ccc2[nH]c(=O)c3c(c2c1)OC(C)(C)C=C3,13.5%
12,CCOc1cc(C(=O)Nc2nn[nH]n2)cc(OCC)c1OCC,-0.4%
13,CCCCOC(=O)c1cccc(NC(=O)c2cc3ccccc3oc2=O)c1,1.7%
14,O=C(O)c1ccc(NC(=O)c2cc3cc([N+](=O)[O-])ccc3oc2=O)cc1,12.5%
15,Cc1nc(-c2ccccc2)c2c(=O)cc[nH]c2n1,15.4%
16,Nc1nonc1/C(=N/O)N1CCN(c2ccc(C(F)(F)F)cc2[N+](=O)[O-])CC1,1.6%
17,O=C(C(c1ccccc1)c1ccccc1)N1CCN(C2CCN(Cc3ccccc3)CC2)CC1,-1%
18,CCOc1ccccc1NC(=O)Cc1ccc(Cl)cc1,-13.7%
19,O=C(O)c1cccc(NC(=O)c2ccccc2NC(=O)c2cccs2)c1,11.9%
20,COc1ccc(NC(=O)COc2ccc(C)c(C)c2)cc1,-9.7%
21,O=C(/C=C/c1cc(Br)cs1)Nc1ccc(Cl)cc1Cl,-0.8%
22,COc1ccc(OC)c(C2Nc3ccccc3NC3=C2C(=O)CC(c2ccc(Cl)cc2)C3)c1 (centres undefined),20.9%
23,CCOc1nc(Nc2ccc(Cl)cc2)nc(N2CCCCC2)n1,8.9%

row,Structure (SMILES),displacement
1,Cc1ccc(Cl)cc1NC(=O)c1ccc(N(Cc2ccccc2)S(C)(=O)=O)cc1,-4.9%
2,O=C1N/C(=N\N=C\c2cccc([N+](=O)[O-])c2)SC1Cc1cccc(Cl)c1Cl (centres undefined),6%
3,CCOC(=O)c1ccccc1NC(=O)Cn1cnc2c1c(=O)n(C)c(=O)n2C,9.5%
4,Oc1ccc(/C=N/Nc2nc3ccccc3s2)c(O)c1,11.1%
5,COc1ccc(Br)cc1/C=N/N=C1/NC(=O)CS1,-13.1%
6,COc1ccc(C(=O)Nc2ccc3nn(-c4ccc(F)cc4)nc3c2)cc1,6.5%
7,c1ccc(-c2nc(NC3CCCCC3)c3ccccc3n2)cc1,3.3%
8,O=C(c1cccc(Br)c1)N1CCN(c2ccc(Cl)cc2)CC1,-3.7%
9,COc1ccc(/C=C(\C(C)=O)[N+](=O)[O-])cc1,-0.9%
10,C=CCOc1ccc(C=C2C(=O)NC(=S)NC2=O)cc1OC,7.8%
11,Cc1cccc(-n2sc3c(c2=S)-c2ccccc2NC3(C)C)c1C,-6.7%
12,O=C(CC1Sc2ccc(C(F)(F)F)cc2NC1=O)Nc1ccc(N2CCCCC2)cc1 (centres undefined),-11.2%
13,Clc1cccc(N=Cc2ccncc2)c1,9.8%
14,CCOC(=O)c1c(N)sc(C(=O)Nc2cc(C)ccc2C)c1C,-0.9%
15,CC(C)Cn1c(C(C)O)nc2ccccc21 (centres undefined),1.7%
16,COc1ccccc1NC1=C(Cl)C(=O)N(c2cccc(Cl)c2Cl)C1=O,2.5%
17,N=C(SC1CC(=O)N(c2ccccc2Cl)C1=O)N1N=C(c2cccs2)CC1c1ccc(Br)cc1 (centres undefined),1.4%
18,CC(C)c1ccc(CNc2cc(N3CCN(C(=O)c4ccccc4F)CC3)ccc2[N+](=O)[O-])cc1,9.1%
19,COc1ccc(Cl)c(NC(=O)CSc2nc(C)cc(C)n2)c1,-8.5%
20,O=C(Nc1cccc2c1C(=O)c1ccccc1C2=O)c1ccc(S(=O)(=O)N2CCCCC2)cc1,-5.9%
21,O=c1nc(/C=C/c2cc3c(cc2Br)OCO3)cc(C(F)(F)F)[nH]1,115%
22,COc1ccc(OC)c(NC(=O)COc2ccc(F)cc2)c1,5.8%
23,O=C(NC(=S)NCCCN1CCOCC1)c1ccc(Cl)cc1Cl,-6.5%

row,Structure (SMILES),displacement
1,COc1cc(-c2noc(-c3ccccc3)n2)cc(OC)c1OC,-0.6%
2,Oc1[nH]c2ccccc2c1C=Nc1ccccc1,1.6%
3,N#Cc1c(Nc2ccc(F)cc2)ccnc1N,1.1%
4,CC(NC(=O)C12CC3CC(CC(C3)C1)C2)C(=O)NC1CCCCC1 (centres undefined),-6.6%
5,CSCCOC(=O)C1=C(C)NC(=O)NC1c1ccc(O)c([N+](=O)[O-])c1 (centres undefined),16.4%
6,CCCOc1ccc(C(=O)Nc2ccc(Br)cc2C(=O)O)cc1,13.6%
7,C=CCN1C(=O)/C(=C\c2cc(Cl)c(O)c(Cl)c2)SC1=S,-38.1%
8,O=C(Nc1ccc(Cl)cc1)c1cccc2ccccc12,14.1%
9,CCN(CC)CCCCCCOc1ccccc1Br,6.9%
10,Cc1ccc2ncnc(NCc3ccco3)c2c1,2.5%
11,O=[N+]([O-])c1ccc2c(c1)c(C1=NCCCCC1)c(O)n2-c1c(Cl)cccc1Cl,-7.6%
12,NC(=O)c1ccccc1N=Cc1cc([N+](=O)[O-])ccc1Cl,-12.8%
13,CC(=O)Nc1ccc(S(=O)(=O)NC(CC(=O)O)c2ccccc2)cc1 (centres undefined),1.2%
14,O=C(Nc1ccc(Br)cc1)c1ccc([N+](=O)[O-])cc1,7%
15,C=CCNC(=O)c1cccc([N+](=O)[O-])c1,-4.6%
16,O=C(CCNc1ccc(-c2ccccc2)cc1)c1cccc([N+](=O)[O-])c1,-7.6%
17,CC(=O)COc1ccc2c3c(c(=O)oc2c1C)CCCC3,-11.5%
18,CC(C)(C)c1ccc(/C=C\C(=O)c2ccc3c(c2)OCO3)cc1,-17%
19,CCOC(=O)C1=C(C)NC(=O)NC1c1ccc(OC)cc1OC (centres undefined),16.6%
20,Cc1ccc(-c2nnc(-c3ccc4c(c3)OCO4)o2)cc1,-2.6%
21,COc1ccc([N+](=O)[O-])cc1N(CC(O)CN1CCCCC1)S(=O)(=O)c1ccccc1 (centres undefined),-5.8%
22,CC1CCC2(CC1)C(C#N)=C(SCC(N)=O)NC(=O)C2C#N (centres undefined),-7.2%
23,COC(=O)C(Cc1ccccc1)NC(=O)c1ccc(C)cc1 (centres undefined),7.4%

row,Structure (SMILES),displacement
1,CCN(CC)S(=O)(=O)c1cc(C(=O)Nc2ccccc2OC)ccc1Cl,-0.1%
2,CC(NC(=O)c1ccccc1Cl)c1ccccc1 (centres undefined),15.9%
3,O=C(NNC(=O)c1cccc(Cl)c1)c1ccc(F)cc1,-4.5%
4,O=C(NCCOc1ccccc1)c1ccccc1F,-20.5%
5,O=C(Nc1ccccc1)c1cc(S(=O)(=O)N2CCOCC2)ccc1Cl,-8.2%
6,COc1ccc(NC(=O)c2ccc(NC(C)=O)cc2)c(OC)c1,-6.4%
7,CN(C)c1ccc(/C=N/NC(=O)c2ccco2)o1,3%
8,O=C(COc1ccc(Cl)cc1)N=Nc1c(O)n(CN2CCCC2)c2ccccc12,0.2%
9,O=C(O)CCCCCN1C(=O)C(=O)/C(=C(\O)c2ccc(Br)cc2)C1c1ccc(F)cc1 (centres undefined),6.3%
10,COC(=O)C1CCC(c2ccccc2)CC1 (centres undefined),-10.4%
11,O=C1CC(C23CC4CC(CC(C4)C2)C3)=NN1c1ccccc1,-5.8%
12,O=C(COc1ccc(Cl)cc1Br)Nc1ccc(Nc2ccccc2)cc1,-5.3%
13,O=C(Nc1ccc(F)cc1)c1cc(-c2cccs2)nc2ccccc12,-6.4%
14,CN1C(=O)C(O)(CC(=O)c2ccc(Br)cc2)c2ccccc21 (centres undefined),-5.9%
15,CC(NC(=O)C(c1ccccc1)c1ccccc1)C(=O)NCCN(C)C (centres undefined),-5.2%
16,O=C(CN1C(=O)/C(=C/c2cccc(Br)c2)SC1=S)Nc1cccc(C(=O)O)c1,8.7%
17,O=C(NCCN1CCOCC1)c1cc(-c2cccs2)nc2ccccc12,4.5%
18,COc1cc(/C=N/Nc2nc(N3CCCCC3)nc(N3CCCCC3)n2)cc(OC)c1,1.2%
19,O=C(Nc1cccnc1)c1cc(S(=O)(=O)N2CCOCC2)ccc1Cl,-0.5%
20,O=C(Cc1cccs1)Nc1ccc(N2CCOCC2)cc1,15.1%
21,O=C1CC2c3ccccc3C1C1C(=O)N(c3ccc(Br)cc3)C(=O)C21 (centres undefined),-1.8%
22,COc1ccc(C(=O)Nc2c(C)ccc3nsnc23)cc1[N+](=O)[O-],10.5%
23,NC(=O)Cn1c(-c2nonc2N)nc2ccccc21,48.5%

row,Structure (SMILES),displacement
1,O=C1S/C(=C\c2cccs2)C(=O)N1Cc1ccccc1,-11%
2,Cc1ccc(S(=O)(=O)NC(=O)Nc2ccccc2C(F)(F)F)cc1,11.4%
3,COC(=O)c1ccc(C(=O)OC)c(NC(=O)CCc2ccc(OC)cc2)c1,4.7%
4,S=c1oc(-c2ccncc2)nn1CN1CCOCC1,-3.3%
5,CCCSc1nsc(SCCC)c1C#N,2.5%
6,O=C(Nc1ccc(NC(=O)c2cc3ccccc3o2)cc1)c1cccc(Cl)c1,-3.4%
7,Fc1ccc(NC(=S)NCC2CCCO2)cc1 (centres undefined),6.2%
8,O=[N+]([O-])c1cccc(CN2CCN(Cc3c[nH]c4ccccc34)CC2)c1,-12.8%
9,COc1ccc(C(=O)O/N=C(\N)c2ccccc2)c(OC)c1,-6.1%
10,Cc1ccc(N=C2SC(C(=O)O)CC(=O)N2C)cc1Cl (centres undefined),-7.9%
11,O=C(Nc1ccccc1)C(=O)Nc1ccc(F)cc1,10.3%
12,CC(=O)c1cccc(NC(=O)c2cc(I)ccc2Cl)c1,3%
13,C#CCOc1nc(Nc2ccc([N+](=O)[O-])cc2)nc(OCC#C)n1,-4.5%
14,CC1(C)CC(=O)c2sc(NC(=O)CSC3=NCCS3)nc2C1,1.8%
15,CN(C)c1ccc(NC(=O)Cc2ccccc2[N+](=O)[O-])cc1,5.8%
16,CCN(CC)c1ccc(NC(=O)COc2ccc(C)cc2)cc1,3.2%
17,COc1cc(C2NC(=S)NC(C)=C2C(=O)Nc2ccc(Br)cc2)cc(OC)c1OC (centres undefined),1.4%
18,COCCNC(=O)C(=O)Nc1ccc(OC)c(Cl)c1,-12.4%
19,N/C(=N\N=C\c1ccc(O)cc1)c1nonc1N,10.5%
20,Cc1ccc(-c2ccc(OCC(=O)Nc3ccccc3C(F)(F)F)cc2)cc1,-7%
21,Cn1c(O)c(/C=N/c2ncc(C(F)(F)F)cc2Cl)n(C)c1=S,0.4%
22,CCC(C)c1ccc(NC(=O)c2cc(Br)ccc2OC)c(O)c1 (centres undefined),5.9%
